# Measurements reported in publication PMC9911399, “Two distinct binding modes provide the RNA-binding protein RbFox with extraordinary sequence specificity”.
# Where a chain is given by its changes, count along the chain named. The list shows a part of the results.
# T1: RBFOX1 RRM RbFoxmut (Fox-RRM*) (Homo sapiens, UniProt Q9NWB1 109-208, R118D;E147R;N151S;E152T)
# T1 sequence: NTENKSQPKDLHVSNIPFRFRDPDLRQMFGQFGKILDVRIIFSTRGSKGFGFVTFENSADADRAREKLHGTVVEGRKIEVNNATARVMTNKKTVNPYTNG
# B1: AGACGUG (DNA:RNA)
# RNA: GGGAGACCGGAAUUCAGAUUGUCCAGACGUGUUAAAUCCCGUCGUAGCCACCA
# DNA 1: CAATCTGAATTCCGGTCTCCC
# DNA 2: TGGTGGCTACGACGGGATT
# B2: CUUUUGC (DNA:RNA)
# RNA: GGGAGACCGGAAUUCAGAUUGUCCCUUUUGCUUAAAUCCCGUCGUAGCCACCA
# DNA 1: CAATCTGAATTCCGGTCTCCC
# DNA 2: TGGTGGCTACGACGGGATT
# B3: ACAACUG (DNA:RNA)
# RNA: B1 RNA with G26C, C28A, G29C
# DNA 1: CAATCTGAATTCCGGTCTCCC
# DNA 2: TGGTGGCTACGACGGGATT
# B4: CAAUUAU (DNA:RNA)
# RNA: B2 RNA with U26A, U27A, G30A, C31U
# DNA 1: CAATCTGAATTCCGGTCTCCC
# DNA 2: TGGTGGCTACGACGGGATT
# B5: ACUGGUU (DNA:RNA)
# RNA: B1 RNA with G26C, A27U, C28G, G31U
# DNA 1: CAATCTGAATTCCGGTCTCCC
# DNA 2: TGGTGGCTACGACGGGATT
# B6: ACGGCAC (DNA:RNA)
# RNA: B1 RNA with G26C, A27G, C28G, G29C, U30A, G31C
# DNA 1: CAATCTGAATTCCGGTCTCCC
# DNA 2: TGGTGGCTACGACGGGATT
# B7: AGCGACG (DNA:RNA)
# RNA: B1 RNA with A27C, C28G, G29A, U30C
# DNA 1: CAATCTGAATTCCGGTCTCCC
# DNA 2: TGGTGGCTACGACGGGATT
# B8: UUGCAGC (DNA:RNA)
# RNA: B2 RNA with C25U, U27G, U28C, U29A
# DNA 1: CAATCTGAATTCCGGTCTCCC
# DNA 2: TGGTGGCTACGACGGGATT
# B9: UACGUGC (DNA:RNA)
# RNA: B2 RNA with C25U, U26A, U27C, U28G
# DNA 1: CAATCTGAATTCCGGTCTCCC
# DNA 2: TGGTGGCTACGACGGGATT
# B10: GAAGGUC (DNA:RNA)
# RNA: B1 RNA with A25G, G26A, C28G, G31C
# DNA 1: CAATCTGAATTCCGGTCTCCC
# DNA 2: TGGTGGCTACGACGGGATT
# B11: AACGGAA (DNA:RNA)
# RNA: B1 RNA with G26A, A27C, C28G, U30A, G31A
# DNA 1: CAATCTGAATTCCGGTCTCCC
# DNA 2: TGGTGGCTACGACGGGATT
# B12: AAUUCGU (DNA:RNA)
# RNA: B2 RNA with C25A, U26A, U29C, C31U
# DNA 1: CAATCTGAATTCCGGTCTCCC
# DNA 2: TGGTGGCTACGACGGGATT
# B13: GUUGCGC (DNA:RNA)
# RNA: B2 RNA with C25G, U28G, U29C
# DNA 1: CAATCTGAATTCCGGTCTCCC
# DNA 2: TGGTGGCTACGACGGGATT
# B14: UUCCGGU (DNA:RNA)
# RNA: B1 RNA with A25U, G26U, A27C, U30G, G31U
# DNA 1: CAATCTGAATTCCGGTCTCCC
# DNA 2: TGGTGGCTACGACGGGATT
# B15: UUGACAC (DNA:RNA)
# RNA: B2 RNA with C25U, U27G, U28A, U29C, G30A
# DNA 1: CAATCTGAATTCCGGTCTCCC
# DNA 2: TGGTGGCTACGACGGGATT
# B16: GACACUU (DNA:RNA)
# RNA: B1 RNA with A25G, G26A, A27C, C28A, G29C, G31U
# DNA 1: CAATCTGAATTCCGGTCTCCC
# DNA 2: TGGTGGCTACGACGGGATT
# B17: UACUUCG (DNA:RNA)
# RNA: B2 RNA with C25U, U26A, U27C, G30C, C31G
# DNA 1: CAATCTGAATTCCGGTCTCCC
# DNA 2: TGGTGGCTACGACGGGATT
# B18: AUAAUUC (DNA:RNA)
# RNA: B1 RNA with G26U, C28A, G29U, G31C
# DNA 1: CAATCTGAATTCCGGTCTCCC
# DNA 2: TGGTGGCTACGACGGGATT
# B19: AGACGCG (DNA:RNA)
# RNA: B1 RNA with U30C
# DNA 1: CAATCTGAATTCCGGTCTCCC
# DNA 2: TGGTGGCTACGACGGGATT
# B20: CCGAAUA (DNA:RNA)
# RNA: B1 RNA with A25C, G26C, A27G, C28A, G29A, G31A
# DNA 1: CAATCTGAATTCCGGTCTCCC
# DNA 2: TGGTGGCTACGACGGGATT
# B21: AACUCAU (DNA:RNA)
# RNA: B1 RNA with G26A, A27C, C28U, G29C, U30A, G31U
# DNA 1: CAATCTGAATTCCGGTCTCCC
# DNA 2: TGGTGGCTACGACGGGATT
# B22: UCUCCAU (DNA:RNA)
# RNA: B1 RNA with A25U, G26C, A27U, G29C, U30A, G31U
# DNA 1: CAATCTGAATTCCGGTCTCCC
# DNA 2: TGGTGGCTACGACGGGATT
# B23: UAGUCCG (DNA:RNA)
# RNA: B1 RNA with A25U, G26A, A27G, C28U, G29C, U30C
# DNA 1: CAATCTGAATTCCGGTCTCCC
# DNA 2: TGGTGGCTACGACGGGATT
# B24: UAACGAG (DNA:RNA)
# RNA: B1 RNA with A25U, G26A, U30A
# DNA 1: CAATCTGAATTCCGGTCTCCC
# DNA 2: TGGTGGCTACGACGGGATT
# B25: GUCUGUA (DNA:RNA)
# RNA: B1 RNA with A25G, G26U, A27C, C28U, G31A
# DNA 1: CAATCTGAATTCCGGTCTCCC
# DNA 2: TGGTGGCTACGACGGGATT
# B26: AUUGUAA (DNA:RNA)
# RNA: B2 RNA with C25A, U28G, G30A, C31A
# DNA 1: CAATCTGAATTCCGGTCTCCC
# DNA 2: TGGTGGCTACGACGGGATT
# B27: AGUCGUG (DNA:RNA)
# RNA: B1 RNA with A27U
# DNA 1: CAATCTGAATTCCGGTCTCCC
# DNA 2: TGGTGGCTACGACGGGATT
# B28: GUGGUGC (DNA:RNA)
# RNA: B2 RNA with C25G, U27G, U28G
# DNA 1: CAATCTGAATTCCGGTCTCCC
# DNA 2: TGGTGGCTACGACGGGATT
# B29: UGCGACA (DNA:RNA)
# RNA: B1 RNA with A25U, A27C, C28G, G29A, U30C, G31A
# DNA 1: CAATCTGAATTCCGGTCTCCC
# DNA 2: TGGTGGCTACGACGGGATT
# B30: ACAUUAG (DNA:RNA)
# RNA: B1 RNA with G26C, C28U, G29U, U30A
# DNA 1: CAATCTGAATTCCGGTCTCCC
# DNA 2: TGGTGGCTACGACGGGATT
# B31: UCGAUGC (DNA:RNA)
# RNA: B2 RNA with C25U, U26C, U27G, U28A
# DNA 1: CAATCTGAATTCCGGTCTCCC
# DNA 2: TGGTGGCTACGACGGGATT
# Molecular target: T1, RBFOX1 RRM RbFoxmut (Fox-RRM*)
# Test: EMSA; HiTS-Eq, 1 nM pool, 10 min; buffer printed only for the single-RNA assays: 10 mM Tris pH 7.5, 150 mM NaCl, 3.4 mM EDTA, 0.001% NP-40, 30 C
# Settings: tags: His6 N-terminal (pET28a); label: 5' 32P
# Procedure, shortened: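 A pool of RNA with 7 randomized nucleotides, 5′-radiolabelled and with DNA-annealed flanks, was equilibrated at 1 nM for 10 min in 50 µL with purified RbFox RRM, wild type or mutant, across increasing protein concentrations. Free RNA was separated by 8% native PAGE, excised, reverse-transcribed, barcoded by PCR and sequenced. Relative association constants were obtained from read-count changes of each RNA species versus the control reaction and normalised to the cognate motif.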
row,Binder,binding signal
1,B1,0.142 KA relative to UGCAUGU
2,B2,0.115 KA relative to UGCAUGU
3,B3,0.067 KA relative to UGCAUGU
4,B4,0.119 KA relative to UGCAUGU
5,B5,0.0929 KA relative to UGCAUGU
6,B6,0.0844 KA relative to UGCAUGU
7,B7,0.115 KA relative to UGCAUGU
8,B8,0.0871 KA relative to UGCAUGU
9,B9,0.136 KA relative to UGCAUGU
10,B10,0.0774 KA relative to UGCAUGU
11,B11,0.103 KA relative to UGCAUGU
12,B12,0.0995 KA relative to UGCAUGU
13,B13,0.137 KA relative to UGCAUGU
14,B14,0.0766 KA relative to UGCAUGU
15,B15,0.0618 KA relative to UGCAUGU
16,B16,0.0571 KA relative to UGCAUGU

row,Binder,binding signal
1,B17,0.0725 KA relative to UGCAUGU
2,B18,0.0977 KA relative to UGCAUGU
3,B19,0.125 KA relative to UGCAUGU
4,B20,0.0834 KA relative to UGCAUGU
5,B21,0.102 KA relative to UGCAUGU
6,B22,0.0978 KA relative to UGCAUGU
7,B23,0.112 KA relative to UGCAUGU
8,B24,0.0709 KA relative to UGCAUGU
9,B25,0.21 KA relative to UGCAUGU
10,B26,0.154 KA relative to UGCAUGU
11,B27,0.117 KA relative to UGCAUGU
12,B28,0.165 KA relative to UGCAUGU
13,B29,0.0626 KA relative to UGCAUGU
14,B30,0.134 KA relative to UGCAUGU
15,B31,0.0993 KA relative to UGCAUGU
